# Experimental data reported in publication PMC10668032.
# Some of the results follow. At the low end of the ranking the order means little.
# Molecular target: SIX1-Q177R homeodomain (UniProt Q15475)
# Test: universal protein binding microarray
# Details: Universal all-10-mer PBM (8x60K, AMADID 030236), 300 nM GST-tagged protein, Alexa Fluor 488 anti-GST; buffer, salt, pH and temperature not stated; high values mean tight binding; most listed sequences are background and not binding sites; double strand, one strand shown
row,Sequence,binding signal [E-score]
1,GGGCCGTA,-0.0739
2,AGAGTTGC,0.135
3,AATATAGG,-0.0683
4,CCGCGAGG,0.0528
5,ACTTGAAC,-0.0046
6,ATTCTCGA,0.0111
7,CCCAAAAC,0.193
8,GGGCATCA,-0.0627
9,CACAAGGG,0.0821
10,CATATTCA,0.0316
11,CTTAACTA,0.0826
12,CCGATGCG,0.0743
13,AAGGGTTG,-0.0595
14,ATGGTAAG,-0.048
15,CGCTAACA,0.187
16,AAGACCTC,-0.143
17,CCATACCC,0.218
18,CCTTCTCA,-0.004
19,TATATAGA,-0.0858
20,TCGTGTCA,0.443
21,TCACAACA,0.195
22,CCAAATAG,-0.0763
23,AACGATGT,-0.0372
24,AGTAGCAT,-0.0284
25,CGAGTCCG,-0.0809

row,Sequence,binding signal [E-score]
1,AGATTCTA,-0.191
2,GATATCGA,-0.123
3,GGAATACA,0.197
4,CAGGTATC,0.328
5,AATACTCG,0.0473
6,CACTGGAC,0.161
7,AATTCAAG,0.0572
8,ATCTCCCC,-0.0273
9,AGACAGCC,-0.0899
10,ATCGTCGG,-0.183
11,AAGATATC,-0.0802
12,ACTACAAT,-0.0425
13,AATAAGCC,-0.188
14,AATTTCAG,-0.308
15,AGGTCACG,-0.197
16,GCGGGGAA,-0.135
17,AAATCGGG,-0.11
18,GAATTTGC,-0.143
19,ATGTCCCA,-0.342
20,AATTACCG,-0.134
21,AGGACAAC,0.0718
22,AAGGGACC,-0.0833
23,CTCTGTGC,-0.214
24,CATATGTC,-0.244
25,CCCAGGTC,0.0474

row,Sequence,binding signal [E-score]
1,AGCCACTC,-0.191
2,ACGACATG,-0.0567
3,GTGTGCGA,0.173
4,ACAACGGC,-0.236
5,CCCCTCCA,0.195
6,CACATCGA,-0.117
7,GCCTCCAA,-0.118
8,AATTAACA,0.14
9,GATCCTCC,0.0993
10,CGTACCGC,0.0133
11,GTAAGCAC,0.189
12,CTGGCGTC,0.0997
13,AAGAGGGG,0.0481
14,GCGCTACC,0.0841
15,GTCCCGGA,-0.0739
16,CACACTTA,0.204
17,AGTTCCTC,-0.18
18,AAACTAGG,-0.0756
19,CTTAACAA,-0.238
20,AACGTTTC,-0.232
21,CTGGTTCC,-0.0794
22,AACGGTCA,-0.176
23,CAGACTTA,-0.154
24,GCGTATAA,-0.0799
25,AGTTATGG,-0.168

row,Sequence,binding signal [E-score]
1,AGTACAGG,-0.0732
2,CGTTGAAA,-0.194
3,AAACGAAA,-0.0501
4,GCAACGCA,-0.164
5,ACGTTTCA,-0.0995
6,GCCGCAAC,0.0161
7,CTTGTACC,0.0467
8,AGAGGCCA,-0.186
9,GCTTCTTA,-0.197
10,TAAGATTA,-0.0197
11,AATACGGA,-0.151
12,ACGCGGCA,0.0942
13,CCTGAGGA,0.0873
14,CGTGCCAA,-0.043
15,CCTACACG,0.398
16,GTCTTCCA,-0.168
17,AACGGTTG,-0.291
18,ACAAGGCG,-0.0518
19,CAAGTTGC,-0.0215
20,ATACATTC,0.082
21,GACACGAC,0.436
22,AAGTTTAG,-0.115
23,ACCGTGTC,0.428
24,GATCAGCC,-0.0407
25,GTGATCAC,0.103

row,Sequence,binding signal [E-score]
1,GATTCACA,0.203
2,AACGTGCC,-0.234
3,CTCCGGTC,0.0249
4,AGCAACGA,-0.0478
5,ACATTGCC,-0.264
6,ACATTCCT,-0.178
7,TGTCGGAA,0.233
8,ACCCATCC,0.0184
9,GTGTCTTA,0.363
10,CAGAACAA,-0.0327
11,CGTTTGCC,-0.135
12,AGCACTAT,-0.0435
13,ATCTGATA,0.123
14,TACGGCAA,-0.0153
15,AGCTACCG,-0.34
16,CAGAACGG,0.0106
17,GCAATGGC,-0.0915
18,CCCAGTAA,0.0691
19,CTGGGGAC,-0.0813
20,ACAGTTCT,-0.16
21,CAAAAATG,0.00455
22,CTCCCACA,0.0811
23,TCAAAGCA,-0.000205
24,CGGGAGAA,-0.0182
25,TCGGCGCA,-0.109

row,Sequence,binding signal [E-score]
1,AATCAGGA,-0.187
2,ACGAAGCC,-0.136
3,AGTCGATC,0.113
4,GCATCTCA,-0.207
5,TGCTCCAA,-0.113
6,GCCGTCCA,-0.134
7,ACAGTTAA,0.0701
8,CAAAGCAC,0.0574
9,AATTCTAG,-0.0596
10,ACTAGCTG,-0.0464
11,AGCGATGG,-0.268
12,GTCAGCAC,0.0873
13,CCTCGACG,0.0464
14,CCGCACAC,0.303
15,GTGCATCA,-0.104
16,AGAATAAT,-0.0581
17,AGCCTACC,-0.0493
18,ACTTCAAC,0.0755
19,GATCTGGA,-0.0728
20,ACCAATGG,0.012
21,CAACTCCA,0.000825
22,AAGATGAG,-0.133
23,AAACTGTG,-0.0881
24,GCTATCCA,-0.188
25,ACTATTAC,-0.0342

row,Sequence,binding signal [E-score]
1,AGCGCGGG,0.263
2,CCCTGCAC,0.178
3,AGCACTGG,0.17
4,ATCCCTCA,0.0788
5,ATCTTAAC,0.136
6,CACCGTCA,0.209
7,GCCGGTGA,-0.0418
8,CCGCCCCG,0.101
9,GGAACATA,-0.106
10,AGGCGACA,0.25
11,CCGGATCG,0.199
12,GCTAGAAC,-0.16
13,GTAATATA,0.0199
14,AAATTCAC,-0.0445
15,CGGCCATC,-0.115
16,CATGGAAA,-0.0353
17,ATGGTTGA,-0.075
18,CGGTTAGA,-0.0519
19,GGATGAAC,-0.0336
20,CCCAACGA,0.0283
21,CCCGAGCC,-0.023
22,ACTAGATA,0.0168
